Laboratory results from patent publication US20170368082A1, “FORMULATIONS OF BRINCIDOFOVIR” (priority 2016, published 2017).
The source gives many values for each of these; only a part stands here.

Assay: Tissue distribution by quantitative whole-body autoradiography (QWBA)
Assay type: in vivo, male Sprague Dawley and Long-Evans rats
Conditions: LE rat, 2 mg/kg IV
Procedure: The study utilized 4 groups of male SD rats (albino), and 3 groups of male LE rats (pigmented); a total of 39 rats. All animals were obtained from Hilltop Lab Animals, Inc. (Scottdale, Pa.). […] Rats in Group 5 were administered a single 2-h IV infusion of [^14C]brincidofovir at a target dose of 2 mg/kg. […] Three dosing formulations (one for high dose IV, one for low dose IV, and one for PO dose) were prepared at QPS on the day of dosing. The IV formulation for Groups 1, 2, 3, and 4 contained a vehicle of 10 mM sodium phosphate buffer in 5% dextrose solution at pH 8.0(±0.1).
Each animal, at their respective termination time points, was euthanized for QWBA analysis immediately after blood collection. One rat per time point per Group was euthanized as listed below.
The blood samples were maintained on wet ice (approximately 4° C.) and then centrifuged to obtain plasma within 1 h of the blood collection time. Centrifuge settings were recorded in the study notebook. Duplicate aliquots of plasma (0.050 mL) were analyzed for radioactivity using direct counting by LSC, and residual plasma was stored at approximately −70° C. and was saved for possible future analysis under a separate study protocol. Residual red blood cells were discarded as radioactive waste.
The pinna, distal limbs, hair, and tail were removed from each frozen carcass and each frozen carcass was embedded in an aqueous suspension of approximately 2% (w/v) carboxymethylcellulose and frozen into a block. The blocks were stored at approximately −20° C. prior to sectioning. Each blocked carcass was mounted on the object stage of a cryomicrotome (Leica CM3600 Cryomacrocut, Nussloch, Germany and Vibratome 9800, St. Louis, Mo.) maintained at approximately −20° C. and internal standards (3), which were plasma fortified with [^14C]-glucose at one concentration (approximately 0.05 μCi/mL), were placed into the frozen blocks, prior to sectioning, and were used for section thickness quality control. A number of whole-body sections (approximately 40 μm thick) were taken in the sagittal plane at various levels of interest using a whole-body cryomicrotome set at −20° C. Sagittal sections (20-50 μm thick) of frozen carcasses were exposed to phosphor imaging plates. Regions of images in tissues were converted to concentrations using standards. All of the major tissues, organs, and biological fluids were represented.
Tissue concentration data was determined for the following tissues and/or contents: adipose (brown and white), adrenal gland, bile (in duct), blood (cardiac), bone, bone marrow, brain (cerebrum, cerebellum, medulla), cecum (and contents), large intestine (and contents), epididymis, esophagus, eye (uvea and lens), Harderian gland, heart, kidney (cortex and medulla), liver, lung, lymph node, pancreas, pituitary gland, prostate gland, salivary gland, seminal vesicles, skeletal muscle, skin (pigmented and non-pigmented), small intestine (and contents), stomach (gastric mucosa and contents), spleen, spinal cord, testis, thymus, thyroid, and urinary bladder (and contents).
The imaging plate and sections were placed in light-tight exposure cassettes, in a copper-lined lead safe, for a 4-day exposure at room temperature. […] Quantification was performed by image densitometry using MCD image analysis software (v. 7.0, Interfocus Imaging Ltd) and a standard curve constructed from the integrated response [i.e., Molecular Dynamics Counts per square millimeter (MDC/mm^2)] and the nominal concentrations of the ^14C-calibration standards. The concentrations of radioactivity were expressed as the μg equivalents of [^14C]brincidofovir per gram sample (μg equiv/g). A lower limit of quantification (LLOQ) was applied to the data (See section 6.7.4).
Tissue concentrations that fell below the LLOQ were identified as being below the quantification limit (BQL). Tissue areas that were not visualized on autoradiographic images were identified as no sample (NS) and reported as BQL.

SMILES: CCCCCCCCCCCCCCCCOCCCOP(=O)(O)CO[C@H](CO)Cn1ccc(N)nc1=O [[^14C] brincidofovir]
- Concentration of radioactivity (Liver, 24 h): 4.037 μg equiv/g tissue
- Concentration of radioactivity (Liver, 72 h): 1.393 μg equiv/g tissue
- Concentration of radioactivity (Lung, 2 h): 0.997 μg equiv/g tissue
- Concentration of radioactivity (Lung, 8 h): 0.283 μg equiv/g tissue
- Concentration of radioactivity (Lung, 24 h): 0.195 μg equiv/g tissue
- Concentration of radioactivity (Lung, 72 h): 0.115 μg equiv/g tissue
- Concentration of radioactivity (Lymph Node, 2 h): 0.453 μg equiv/g tissue
- Concentration of radioactivity (Lymph Node, 8 h): 0.219 μg equiv/g tissue
- Concentration of radioactivity (Lymph Node, 24 h): 0.149 μg equiv/g tissue
- Concentration of radioactivity (Lymph Node, 72 h): 0.085 μg equiv/g tissue
- Concentration of radioactivity (Pancreas, 2 h): 0.406 μg equiv/g tissue
- Concentration of radioactivity (Pancreas, 8 h): 0.089 μg equiv/g tissue
- Concentration of radioactivity (Pancreas, 24 h): 0.052 μg equiv/g tissue
- Concentration of radioactivity (Pancreas, 72 h): 0.022 μg equiv/g tissue
- Concentration of radioactivity (Pituitary Gland, 2 h): 0.899 μg equiv/g tissue
- Concentration of radioactivity (Pituitary Gland, 8 h): 0.367 μg equiv/g tissue
- Concentration of radioactivity (Pituitary Gland, 24 h): 0.089 μg equiv/g tissue
- Concentration of radioactivity (Pituitary Gland, 72 h): 0.055 μg equiv/g tissue
- Concentration of radioactivity (Plasma (by LSC), 2 h): 0.863 μg equiv/g tissue
- Concentration of radioactivity (Plasma (by LSC), 8 h): 0.173 μg equiv/g tissue
- Concentration of radioactivity (Plasma (by LSC), 24 h): 0.029 μg equiv/g tissue
- Concentration of radioactivity (Plasma (by LSC), 72 h): 0.008 μg equiv/g tissue
- Concentration of radioactivity (Prostate Gland, 2 h): 0.166 μg equiv/g tissue
- Concentration of radioactivity (Prostate Gland, 8 h): 0.039 μg equiv/g tissue
- Concentration of radioactivity (Prostate Gland, 24 h): 0.035 μg equiv/g tissue
- Concentration of radioactivity (Prostate Gland, 72 h): 0.015 μg equiv/g tissue
- Concentration of radioactivity (Salivary Gland, 2 h): 0.494 μg equiv/g tissue
- Concentration of radioactivity (Salivary Gland, 8 h): 0.111 μg equiv/g tissue
- Concentration of radioactivity (Salivary Gland, 24 h): 0.071 μg equiv/g tissue
- Concentration of radioactivity (Salivary Gland, 72 h): 0.030 μg equiv/g tissue
- Concentration of radioactivity (Seminal Vesicles, 2 h): 0.364 μg equiv/g tissue
- Concentration of radioactivity (Seminal Vesicles, 8 h): 0.304 μg equiv/g tissue
- Concentration of radioactivity (Seminal Vesicles, 24 h): 0.327 μg equiv/g tissue
- Concentration of radioactivity (Seminal Vesicles, 72 h): 0.172 μg equiv/g tissue
- Concentration of radioactivity (Skeletal Muscle, 2 h): 0.167 μg equiv/g tissue
- Concentration of radioactivity (Skeletal Muscle, 8 h): 0.023 μg equiv/g tissue
- Concentration of radioactivity (Skeletal Muscle, 24 h): 0.017 μg equiv/g tissue
- Concentration of radioactivity (Skeletal Muscle, 72 h): 0.007 μg equiv/g tissue
- Concentration of radioactivity (Skin (non-pigmented), 2 h): 0.288 μg equiv/g tissue
- Concentration of radioactivity (Skin (non-pigmented), 8 h): 0.268 μg equiv/g tissue
- Concentration of radioactivity (Skin (non-pigmented), 24 h): 0.108 μg equiv/g tissue
- Concentration of radioactivity (Skin (non-pigmented), 72 h): 0.068 μg equiv/g tissue
- Concentration of radioactivity (Skin (pigmented), 2 h): 0.460 μg equiv/g tissue
- Concentration of radioactivity (Skin (pigmented), 8 h): 0.186 μg equiv/g tissue
- Concentration of radioactivity (Skin (pigmented), 24 h): 0.116 μg equiv/g tissue
- Concentration of radioactivity (Skin (pigmented), 72 h): 0.047 μg equiv/g tissue
- Concentration of radioactivity (Small Intestine (contents), 2 h): 63.303 μg equiv/g tissue
- Concentration of radioactivity (Small Intestine (contents), 8 h): 1.982 μg equiv/g tissue
- Concentration of radioactivity (Small Intestine (contents), 24 h): 0.207 μg equiv/g tissue
- Concentration of radioactivity (Small Intestine (contents), 72 h): 0.032 μg equiv/g tissue
- Concentration of radioactivity (Small Intestine, 2 h): 1.710 μg equiv/g tissue
- Concentration of radioactivity (Small Intestine, 8 h): 2.462 μg equiv/g tissue
- Concentration of radioactivity (Small Intestine, 24 h): 0.704 μg equiv/g tissue
- Concentration of radioactivity (Small Intestine, 72 h): 0.076 μg equiv/g tissue
- Concentration of radioactivity (Spinal Cord, 2 h): 0.151 μg equiv/g tissue
- Concentration of radioactivity (Spinal Cord, 8 h): 0.024 μg equiv/g tissue
- Concentration of radioactivity (Spinal Cord, 24 h): 0.011 μg equiv/g tissue
- Concentration of radioactivity (Spinal Cord, 72 h): 0.006 μg equiv/g tissue
- Concentration of radioactivity (Spleen, 2 h): 0.821 μg equiv/g tissue
- Concentration of radioactivity (Spleen, 8 h): 0.561 μg equiv/g tissue
- Concentration of radioactivity (Spleen, 24 h): 0.358 μg equiv/g tissue
- Concentration of radioactivity (Spleen, 72 h): 0.284 μg equiv/g tissue
- Concentration of radioactivity (Stomach (contents), 2 h): 0.014 μg equiv/g tissue
- Concentration of radioactivity (Stomach (contents), 8 h): 0.051 μg equiv/g tissue
- Concentration of radioactivity (Stomach (contents), 24 h): 0.006 μg equiv/g tissue
- Concentration of radioactivity (Stomach (contents), 72 h): 0.008 μg equiv/g tissue
- Concentration of radioactivity (Stomach (gastric mucosa), 2 h): 0.553 μg equiv/g tissue
- Concentration of radioactivity (Stomach (gastric mucosa), 8 h): 0.122 μg equiv/g tissue
- Concentration of radioactivity (Stomach (gastric mucosa), 24 h): 0.077 μg equiv/g tissue
- Concentration of radioactivity (Stomach (gastric mucosa), 72 h): 0.031 μg equiv/g tissue
- Concentration of radioactivity (Testis, 2 h): 0.231 μg equiv/g tissue
- Concentration of radioactivity (Testis, 8 h): 0.091 μg equiv/g tissue
- Concentration of radioactivity (Testis, 24 h): 0.076 μg equiv/g tissue
- Concentration of radioactivity (Testis, 72 h): 0.041 μg equiv/g tissue
- Concentration of radioactivity (Thymus, 2 h): 0.331 μg equiv/g tissue
- Concentration of radioactivity (Thymus, 8 h): 0.136 μg equiv/g tissue
- Concentration of radioactivity (Thymus, 24 h): 0.078 μg equiv/g tissue
- Concentration of radioactivity (Thymus, 72 h): 0.050 μg equiv/g tissue
- Concentration of radioactivity (Thyroid, 2 h): 0.348 μg equiv/g tissue
- Concentration of radioactivity (Thyroid, 8 h): 0.157 μg equiv/g tissue
- Concentration of radioactivity (Thyroid, 24 h): 0.105 μg equiv/g tissue
- Concentration of radioactivity (Thyroid, 72 h): 0.056 μg equiv/g tissue
- Concentration of radioactivity (Urinary Bladder (contents), 2 h): 22.905 μg equiv/g tissue
- Concentration of radioactivity (Urinary Bladder (contents), 8 h): 3.544 μg equiv/g tissue
- Concentration of radioactivity (Urinary Bladder (contents), 24 h): 1.348 μg equiv/g tissue
- Concentration of radioactivity (Urinary Bladder (contents), 72 h): 0.249 μg equiv/g tissue
- Concentration of radioactivity (Urinary Bladder, 2 h): 0.474 μg equiv/g tissue
- Concentration of radioactivity (Urinary Bladder, 8 h): 0.519 μg equiv/g tissue
- Concentration of radioactivity (Urinary Bladder, 24 h): 0.253 μg equiv/g tissue
- Concentration of radioactivity (Urinary Bladder, 72 h): 0.117 μg equiv/g tissue
